The source gives no read counts; variants with many changes may rest on few reads.

To fix the notation:
B1: LINE1-mini (parent)
chain: GGCAGAGCUCAACACAGCGUGGCAAAGUGGCUGUGGCUAGACUGCC

The variants in this data set derive from B1. The data set is described as follows: self-cleavage, relative activity (ratio to wild type); higher = more cleavage; in vitro, sequencing; the parent is a self-cleaving ribozyme.
For GGCAGAGCUCAACAAAGCGUGGCAAAGUGGCUGUGCCUAGACUUCC [C15A G36C G44U], the self-cleavage is 0.03.
On to GGCAGAGCUCAACAGAGCGUGGCAAUGUCGCUGUGGCUAGACUGCC [C15G A26U G29C], for which the self-cleavage was determined as 0.24.
In the case of GGCAGAGCUCAACAAAGCGUUGCAAAGUGGCUGGGUCUAUACUGCC [C15A G21U U34G G36U G40U] it was 0.03; in that of GGCAGAGCUCAACAAAGCGUGGCAAAUUGGCCGUGGCUAGAAUGCC [C15A G27U U32C C42A], 0.05.
Regarding GGCAGAGCUCAACAAAGCGUUGCAAAGUGGCUGUAGCUAGACUCUC [C15A G21U G35A G44C C45U], the self-cleavage was found to be 0.01.
With GGCAGAGCUCAACAAAUCGUGGCAAAGUGGCUGAGGCUAGACUGCC [C15A G17U U34A], the self-cleavage is 0.09.
Then GGCAGAGCUCAACAAAGCAUGGUAAAGUGGCAGUGGCUAGACUGCC [C15A G19A C23U U32A], with 0.01.
Then GGCAGAGCUCAACAAAGCGUGGCAAAGUGGCUGCGGCUCGACUGCC [C15A U34C A39C], with 0; and GGCAGAGCUCAACAAAGCGGGGCAACGUGGCUGUGGCUAGACUGCC [C15A U20G A26C], with 0.09; and GGCAGAGCUCAACAAAGCGUGGCAAAGUGGCUAUGGUUAGACUGAC [C15A G33A C37U C45A], with 0.03.
On to GGCAGAGCUCAACAGAGCGUGGCAUAGUGGCUGUGGCUAGCAUCAC [C15G A25U A41C C42A G44C C45A], for which the self-cleavage was determined as 0.01.
In the case of GGCAGAGCUCAACAAAGCGUGGCAAAGAGGCUGUGGCUAGACUGUC [C15A U28A C45U], the self-cleavage was 0.16.
In the case of GGCAGAGCUCAACAAAGCGUAGCAAAUUGGCUGCGGCUAGACCGGC [C15A G21A G27U U34C U43C C45G] it was 0.02.
Then GGCAGAGCUCAACAAAGCGUGGCAAAGUGGCUGUGUUUAGACUGCC [C15A G36U C37U], with 0.07; and GGCAGAGCUCAACAAAGCGUGGCAAAGAGGCUAUGGCUAGACUGAC [C15A U28A G33A C45A], with 0.04.
In the case of GGCAGAGCUCAACAAAGCGUGACAAUGUGGCUGUGGCUAGACUGCC [C15A G22A A26U] it was 0.07.
Consider GGCAGAGCUCAACAAAGCGUGGAAAAGUGGCUCAGGCUAGACUGCC [C15A C23A G33C U34A], for which the self-cleavage is 0.06.
For the variant GGCAGAGCUCAACAAAGCGUGGCAAAGUGUCGGUGGUUAGACUGAA [C15A G30U U32G C37U C45A C46A], the self-cleavage turned out to be 0.03.
As for GGCAGAGCUCAACAAAGCAUGGCAAAGUGGCUGUGACUAGACUGCC [C15A G19A G36A], the self-cleavage amounted to 0.07.
As for GGCAGAGCUCAACAAAGCGUGGCAAAAGGGCUGUGGCUUGACUGCC [C15A G27A U28G A39U], the self-cleavage came to 0.03.
With GGCAGAGCUCAACAAAGCGUAGCAAGGUGGCUGUGGCUAGACUGCC [C15A G21A A26G], the self-cleavage came to 0.08.
Regarding GGCAGAGCUCAACAGCGGGUGGCAAAGUGGCUGUGGCUAGACUGCC [C15G A16C C18G], the self-cleavage came to 0.06.
In the case of GGCAGAGCUCAACAAAGCGUGGCAAAGUGGCUAUGUCUAGACUGAC [C15A G33A G36U C45A] it was 0.03; in that of GGCAGAGCUCAACAAAGCGGGGCAAAGUGGCUGUGGCUAGACUCCC [C15A U20G G44C], 0; in that of GGCAGAGCUCAACAAACCGUGGCAAAGGGGCUGUGGCUAGACUGCC [C15A G17C U28G], 0.
Then GGCAGAGCUCAACAAAGCGUGGCAAAGUGGCUGGGGUUAGACUGCC [C15A U34G C37U], with 0.09; and GGCAGAGCUCAACAAAGGGUCGCAAAGUUGCUGUGGCUAGAGUGCC [C15A C18G G21C G29U C42G], with 0.01; and GGCAGAGCUCAACAGAGCGUGGCGAAGUGCCUGCUGCUAGACUGCC [C15G A24G G30C U34C G35U], with 0.
In the case of GGCAGAGCUCAACAAAGCGUGGGAAAGAGGCUGUGGCUAGACUGCC [C15A C23G U28A], the self-cleavage turned out to be 0.02.
As to GGCAGAGCUCAACAAAGCGUGGCAAACUGGCUUUGGCUAGACUGCC [C15A G27C G33U], the self-cleavage is 0.1.
For the variant GGCAGAGCUCAACAAAGCAUGGCAAAGUUGCUGUGGCUAGACUGCC [C15A G19A G29U], the self-cleavage came out at 0.09.
As to GGCAGAGCUCAACAAAGUGUGGCAAAGUGGCUUUGGCUAGACUGCC [C15A C18U G33U], the self-cleavage turned out to be 0.14.
For GGCAGAGCUCAACAAAGCGUGGCAAAGUGGCCGUGGCUUUCCUGCC [C15A U32C A39U G40U A41C], the self-cleavage was 0.08.
Then GGCAGAGCUCAACAAAGCGUGGCAAAGUGGCUGUGGUUAGAUUGCC [C15A C37U C42U], with 0.03; and GGCAGAGCUCAACAAAUCGUGGCAAAGUGCCUGUGGCUAGACUGAC [C15A G17U G30C C45A], with 0.01; and GGCAGAGCUCAACAGGGCGUUGCAAAGUGGCAGUGGCUAGAUUGCC [C15G A16G G21U U32A C42U], with 0.01.
Then GGCAGAGCUCAACAAAGCGUGGCAAAGUGGUUGUGGCUAAACUGCC [C15A C31U G40A], with 0.04; and GGCAGAGCUCAACAAAACGUGGCAAAGAGGCUGUGGCUAGACUGCC [C15A G17A U28A], with 0.02; and GGCAGAGCUCAACAAAGCGUCGCAAAGUGGCUGUUGCUAGACUGCC [C15A G21C G35U], with 0.
Then GGCAGAGCUCAACAAAGCGCGGCAAAGUGGGUGUGGCUAGAUUGCC [C15A U20C C31G C42U], with 0.05; and GGCAGAGCUCAACAAAGCCUGGCAAACUGGCUGUGGCUAAACUGCC [C15A G19C G27C G40A], with 0.02; and GGCAGAGCUCAACAAAGCGUGGCAAAGUGGCUGUGGCUAGACUGAG [C15A C45A C46G], with 0.03.
For GGCAGAGCUCAACAAAGCGUGGCAAAGUGGCUGUGGGUACAUUGCC [C15A C37G G40C C42U], the self-cleavage was found to be 0.
As for GGCAGAGCUCAACAAAGUGUGACAAAGUGGCUGAGGCUAGACUGCC [C15A C18U G22A U34A], the self-cleavage is 0.17.
For GGCAGAGCUCAACAAAGCGCGGCAAAGAAGCUGUGGCUAGACUGCC [C15A U20C U28A G29A], the self-cleavage was determined as 0.02.
Then GGCAGAGCUCAACAAAGCGUGGCAAAAUGGCUGUCACUAGACUGCC [C15A G27A G35C G36A], with 0.02.
Then GGCAGAGCUCAACAAAACGUCGCAAAGUGGCUGUGGCUAGAUUGCA [C15A G17A G21C C42U C46A], with 0.01; and GGCAGAGCUCAACAAAACGUGGCAAAGUGGCUGUGGCUCGACUGCC [C15A G17A A39C], with 0.02.
Then GGCAGAGCUCAACAAAGCGUGGGAAAGUGGCUGUGGCUAGACCGCC [C15A C23G U43C], with 0.05; and GGCAGAGCUCAACAAACCGUGGCAUAGUGGCUGUGGCUAGACUUCC [C15A G17C A25U G44U], with 0.03; and GGCAGAGCUCAACAGAGCGUGGCACAGUGGCUCUGGCUAGAAUGCC [C15G A25C G33C C42A], with 0.05.
Consider GGCAGAGCUCAACAAAGCGUGUCAAAGUGGAUGUGCCUAGACUGCC [C15A G22U C31A G36C], for which the self-cleavage amounted to 0.04.
With GGCAGAGCUCAACAAAGCGAGACAAAGUGGCUGUGGCUAGACUGCC [C15A U20A G22A], the self-cleavage amounted to 0.07.
Consider GGCAGAGCUCAACAAAGCGGGGUAAAGUGGCUGUGGCUAGACUGCC [C15A U20G C23U], for which the self-cleavage worked out at 0.03.
Then GGCAGAGCUCAACAAAGGGAGGCAAAGUGGCUGUGGCUAGACUCCC [C15A C18G U20A G44C], with 0.02; and GGCAGAGCUCAACAAAGCGUGGCAAAGUGACUGUGGUGGUACUGCC [C15A G30A C37U U38G A39G G40U], with 0.02.

These data come from the RNAGym collection of RNA variant scans (doi:10.7554/elife.90254).
